34 variants from the RNAGym collection of RNA variant scans (doi:10.1093/nar/gkz1192) can be followed below.

Read counts are not given, so values of variants with three or more changes are uncertain.

B1: CPEB3 Ribozyme (parent)
chain: UAACAGGGGGCCACAGCAGAAGCGUUCACGUCGCAGCCCCUGUCAGAUUCUGGUGAAUCUGCGAAUUCUGCUGUAUAUCUC

Variants of B1 are the subject of the data set. Briefly: self-cleavage, relative activity (ratio to wild type); higher = more cleavage; in vitro, sequencing. A digest of the protocol: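 Relative activity compares each variant's cleaved/total read fraction with that of the unmutated ribozyme. To get these fractions, barcoded CPEB3 ribozyme libraries from rounds of error-prone PCR were transcribed with T7 RNA polymerase for 5 hours at 37°C and then given 15 min of DNase I treatment before EDTA was added. The RNAs were reverse transcribed with template switching and sequenced on Illumina, and DNA sequencing linked barcodes to variants. A minimum of 5 reads applied, and three batches were averaged.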
Regarding UGACAGGGGGCCACAGCAGAAGCGCUCACGUCGCAGCCCCUGUCAGAUACUGUUGAAUCUGCGAAUUCUGCUGUAUAUCUC [A2G U25C U49A G53U], the self-cleavage came to 0.06.

In the case of UGACAGGGGGCCACAGCAGAAGCGUUCACGUCGCAGCCCCUGCCAGAUUCCGGUGAAUCAGCGAAUUCUGCUGUAUAUCUC [A2G U43C U51C U60A], the self-cleavage stood at 0.16. As to UGACAGGGGGCCACAGCAGAAGCGUACACGUCGCAGCCCCUGUCAGAUUCUGGUGAAUCUGCGAAUCCCGCCGUAUAUCUC [A2G U26A U67C U69C U72C], the self-cleavage is 0.42. For the variant UGACAGGGGGCCACAGCAGAAGCGUCCACGUCGCAGCCCCUGUCAGAUUCCGGCGAAUCUACGAAUUCUGCUGUAUAUCUC [A2G U26C U51C U54C G61A], the self-cleavage was found to be 0.35.

As to UGACAGGGGGCCACAGCAGAAGCGUGCACGUCGCAGCCCCUGUCAGAUUCCGGUGAAUCUGCGAAUUCUGCUGUAUGUCCC [A2G U26G U51C A77G U80C], the self-cleavage stood at 0.28. As for UGACAGGGGGCCACAGCAGAAGCGUCCACGUCGCAGGCCCUGUAAGAUUCUGGUGAAUCUGCGAAUUCUGCUGUAUACCUC [A2G U26C C37G C44A U78C], the figure is 0.18; as for UGACAGGGGGCCACAGCAGAAGCGCUCACGUCGCAGCCCCUGUCAGAUUCUGGUGAACCUGCGAAUUCUGCUGUAUAUCUC [A2G U25C U58C], 0.09; as for UGACAGGGGGCCACAGCAGAAGCGCUCACGUCGCAGCCCCUGUCAGAUACUGGUGAGUCUGCGAAUUCUGCUGUAUAUCUC [A2G U25C U49A A57G], 0.07. On to UGACAGGGGGCCACAGCAGAAGCGUCCAAGUCGCAGCCCCUGUCAGAUUCUGGUGAAUCUGCGAAUUCUGCUGAAUAUCCC [A2G U26C C29A U74A U80C], for which the self-cleavage worked out at 0.08. On to UGACAGGGGGCCACAGCAGAAGCGCUCACCUCGCAGCCCAUGUCAGAUUCUGGUGAAUCUGCGAGUUCUGCAGUAUGUCUC [A2G U25C G30C C40A A65G U72A A77G], for which the self-cleavage was found to be 0.03. As for UGACAGGGGGCCACAGCAGAAGCGUUCACGACGCAGCCCCUGUCCGAUUCUGGUGAAUCUGCAAGUUCUGCUGUAUAUCUC [A2G U31A A45C G63A A65G], the self-cleavage is 0.3. As for UGACAGGGGGCCACAGCAGAAGCGUACACGUCGCAGCCCCUGUCAGAUACUGGUGAUUCUGCGAAUUCUGCUGUAUAUCUC [A2G U26A U49A A57U], the self-cleavage is 0.18. As for UGACAGGGGGCCACAGCAGAAGCGUACUCGUCGCAGCCCCUGUCAGAUUCUGGUGAAUCUGCGAAUUCCGCUGUAUAUCUC [A2G U26A A28U U69C], the figure is 0.35; as for UGACAGGGGGCCACAGCAGAAGCGCUCACGUCGCAGCCCCUGUCAGAUUCUGGUGAAUCUGCGGAUUCUGCUGUAUUUCUC [A2G U25C A64G A77U], 0.21. UGACAGGGGGCCACAGCAGAAGCGUUCACGUCGCAGCCCCUGCCAGAUUCGGGUGAAUCUGCGAAUUCUGCUGUAUAUCUC [A2G U43C U51G]: the self-cleavage was 0.59. Take UGACAGGGGGCCACAGCAGAAGCGUUCACGCCGCAGCCCCUGUCAGAUUCUGGUGAAUCUGCGAAUUCUGCUGUAUAUUUC [A2G U31C C79U]: the self-cleavage is 0.73. For UGACAGGGGGCCACAGCAGAAGCGUUCACGUCGCAGCCCCCGACAGAUUCUGGUGAAUCUGCGAAUUCUGCUGUAUAUCUC [A2G U41C U43A], the self-cleavage came out at 0.62. Next, UGACAGGGGGCCACAGCAGAAGCGUUCACGUCGCAGCCCCCGCCAGAUUCUGGUGAAUCUGCGAAUUCUGCUGUAUAUCUC [A2G U41C U43C]: 0.53; UGACAGGGGGCCACAGCAGAAGCGUUCACGUCGCAGCCCCUGUCAGAGUCUGGUGAAUCUGCGAGUUCUGCUGUAUAACUC [A2G U48G A65G U78A]: 0.26. As for UGACAGGGGGCCACAGCAGAAGCGUUCACGUCGCAGCCCCUGUCAGAUUCUGGAGAAUCUGCGGAUUCUGCUGUAUAUCUC [A2G U54A A64G], the self-cleavage turned out to be 0.66. Next, UGACAGGGGGCCACAGCAGAAGCGUCCACGUCGCUGCCCCUGUCAGAUUCUGGUGAAUCUGCGAAUUCUGCUGUAUACCUC [A2G U26C A35U U78C]: 0.07. In the case of UGACAGGGGGCCACAGCAGAAGCGUUCACGUCGCAGCCCCUGUCAGAUUCAGGUGAGUCUGCGAAUUCUGCUGUAUAUCUC [A2G U51A A57G], the self-cleavage was found to be 0.24. Take UGACAGGGGGCCACAGCAGAAGCGUACACGCCGCAGCCCCUGUCAGAUUCUGGUGAAUCUGCGAGUUCCGCUGUAUAUCUC [A2G U26A U31C A65G U69C]: the self-cleavage is 0.19. UGACAGGGGGCCACAGCAGAAGCGUUCACGUCGCAGCCCCCGUCAGAUUCUGGUGAAUCUGCGAGUUCUGCCGUAUAUCUC [A2G U41C A65G U72C]: the self-cleavage came out at 0.5.

Consider UGACAGGGGGCCACAGCAGAAGCGUUCACGACGCAGCCCCUGUCAGAUGCUGGUGAAUCUGCGAAUUCUGCUGUAUAUCUC [A2G U31A U49G], for which the self-cleavage is 0.56.

Consider UGACAGGGGGCCACAGCAGAAGCGUUCACGGCGCGGUCCCUGUCAGGUUCUGGUGAAUCUGCGAAUUCUGCUGUACAUCUC [A2G U31G A35G C37U A47G U76C], for which the self-cleavage worked out at 0.98. As for UGACAGGGGGCCACAGCAGAAGCGUUCACGUCGCAGCCCCUGUCAGAUUCCGGUGAAUCUGCGAAGUCUGCUGUAUAUCUC [A2G U51C U66G], the figure is 0.27; as for UGACAGGGGGCCACAGCAGAAGCGUUCACGUCGCAGCCCCUGCCAGAUUCUGGUGAAUCCGCGAAUUCUGCUGUAUAUCUC [A2G U43C U60C], 0.21; as for UGACAGGGGGCCACAGCAGAAGCGUGCACGUCGCAGCCCCUGUCAGAUUCUGGUGAAUCUGCGAAUGCUGCUGUAUAUCUC [A2G U26G U67G], 0.24. Consider UGACAGGGGGCCACAGCAGAAGCGUUCACGUCGCAGCCCCUGUCAGAUUCCGGUGAAUCAGCGAAUUCUGCUGUAUACCUC [A2G U51C U60A U78C], for which the self-cleavage amounted to 0.69.

Consider UGACAGGGGGCCACAGCAGAAGCGUUCACGUCGCAGCCCCCGUCAGAUUCUGGUGAAUCUGUGAAUUCUGCCGUAUAUCUC [A2G U41C C62U U72C], for which the self-cleavage stood at 0.15. Consider UGACAGGGGGCCACAGCAGAAGCGUUCACGUCGCAGCCCCGGUCAGAUUCUGGUGAGUCUGCGAAUUCUGCUGUAUGUCUC [A2G U41G A57G A77G], for which the self-cleavage is 0.05. UGACAGGGGGCCACAGCAGAAGCGCUCACGUCGCAGCCCCUGUCGGAUUCUGGUGAAUAUGCGAAUUCUGCUGUAUAUCUC [A2G U25C A45G C59A]: the self-cleavage came out at 0.08. Turning to UGACAGGGGGCCACAGCAGAAGCGCUCACGUCGCAGCCCCUGUCAGGUACUGGUGAAUCUGCGAAUUCUGCUGUAUAUCUC [A2G U25C A47G U49A], the self-cleavage came to 0.32.
